# T1: HUMAN CLDN-6 (UniProt P56747) (human, UniProt P56747 1-220)
# T1 sequence: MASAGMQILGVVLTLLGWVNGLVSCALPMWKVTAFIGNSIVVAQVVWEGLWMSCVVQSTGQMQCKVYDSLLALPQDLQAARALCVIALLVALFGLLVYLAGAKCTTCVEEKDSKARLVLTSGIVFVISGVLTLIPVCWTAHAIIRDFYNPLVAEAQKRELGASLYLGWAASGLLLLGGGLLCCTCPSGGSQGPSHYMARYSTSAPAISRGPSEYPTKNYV
# Target: T1, HUMAN CLDN-6 (UniProt P56747)
# Experiment: cell-based or functional assay
"TDCC EC50, OAW28 cells","TDCC EC50, OVCAR-3 cells","TDCC EC50, PA-1 cells","TDCC EC50, NCI-H1435 cells",Binder,"TDCC EC50, LCLC97TM1 cells"
0.0352 nM,0.0257 nM,0.0031 nM,,S3N/HLE BITE I2E (SEQ ID NO: 77) (bispecific antibody) QVQLVQSGAEVKKPGASVKVSCKASGYTFTGYYVHWVRQAPGQCLEWMGWINPNSGATNYAQKFQGRVTMTRDTSISTAYMELSRLRSVDTAVYYCVRDALIVEAPATRDYYYYGMDVWGQGTTVTVSSGGGGSGGGGSGGGGSEIVLTQSPGTLSLSPGERATLSCRASQSVRSTYLAWYQQKPGQAPRLLISGASSRATGIPDRFSGSGSGTDFTLTISRLEPEDFAVYYCQQYQTSPITFGCGTRLEIKSGGGGSEVQLVESGGGLVQPGGSLKLSCAASGFTFNKYAINWVRQAPGKGLEWVARIRSKYNNYATYYADAVKDRFTISRDDSKNTVYLQMNNLKTEDTAVYYCARAGNFGSSYISYWAYWGQGTLVTVSSGGGGSGGGGSGGGGSQTVVTQEPSLTVSPGGTVTIT[sequence of about 80 residues not given]FGSGTKLTVLGGGG[sequence of human IgG1 Fc with R292C N297G V302C (EU numbers) not given]GGGGSGGGGSGGGGSGGGGSGGGGSGGGGS[sequence of human IgG1 Fc with R292C N297G V302C (EU numbers) not given],
0.0301 nM,0.0191 nM,0.0028 nM,0.0059 nM,X3S/HLE BITE I2E (SEQ ID NO: 35) (bispecific antibody) QVQLVQSGAEVKKPGASVKVSCKASGYTFTGYYVHWVRQAPGQCLEWMGWINPNSGATNYAQKFQGRVTMTRDTSISTAYMELSRLRSDDTAVYYCVRDALIVEAPATRDYYYYGMDVWGQGTTVTVSSGGGGSGGGGSGGGGSEIVLTQSPGTLSLSPGERATLSCRASQSVRSTYLAWYQQKPGQAPRLLIYGASSRATGIPDRFSGSGSGTDFTLTISRLEPEDFAVYYCQQYDASPITFGCGTRLEIKSGGGGSEVQLVESGGGLVQPGGSLKLSCAASGFTFNKYAINWVRQAPGKGLEWVARIRSKYNNYATYYADAVKDRFTISRDDSKNTVYLQMNNLKTEDTAVYYCARAGNFGSSYISYWAYWGQGTLVTVSSGGGGSGGGGSGGGGSQTVVTQEPSLTVSPGGTVTIT[sequence of about 80 residues not given]FGSGTKLTVLGGGG[sequence of human IgG1 Fc with R292C N297G V302C (EU numbers) not given]GGGGSGGGGSGGGGSGGGGSGGGGSGGGGS[sequence of human IgG1 Fc with R292C N297G V302C (EU numbers) not given],0.0056 nM
0.0446 nM,0.0194 nM,0.0034 nM,0.0116 nM,L4B/HLE BITE I2E (SEQ ID NO: 49) (bispecific antibody) QVQLVQSGAEVKKPGASVKVSCKASGYTFTGYYVHWVRQAPGQCLEWMGWINPNSGATNYAQKFQGRVTMTRDTSISTAYMELSRLRSDDTAVYYCVRDRLIVEAPATRDYYYYGMDVWGQGTTVTVSSGGGGSGGGGSGGGGSEIVLTQSPGTLSLSPGERATLSCRASQSVRSTYLAWYQQKPGQAPRLLIYGASSRATGIPDRFSGSGSGTDFTLTISRLEPEDFAVYYCQQYDASPITFGCGTRLEIKSGGGGSEVQLVESGGGLVQPGGSLKLSCAASGFTFNKYAINWVRQAPGKGLEWVARIRSKYNNYATYYADAVKDRFTISRDDSKNTVYLQMNNLKTEDTAVYYCARAGNFGSSYISYWAYWGQGTLVTVSSGGGGSGGGGSGGGGSQTVVTQEPSLTVSPGGTVTIT[sequence of about 80 residues not given]FGSGTKLTVLGGGG[sequence of human IgG1 Fc with R292C N297G V302C (EU numbers) not given]GGGGSGGGGSGGGGSGGGGSGGGGSGGGGS[sequence of human IgG1 Fc with R292C N297G V302C (EU numbers) not given],0.0107 nM

# Source: patent US20260132196A1 (Amgen, published 2026)
